{
  "source": "a collection of fitness landscapes (doi:10.1016/j.celrep.2020.107928)",
  "parents": {"B1": {"name": "Caulobacter ParB omega fusion; a variant is named by its letters at X, in order, B8GW30 (parent)", "chain": "MESVVVGEPGMSEGRRGLGRGLSALLGEVDAAPAQAPGEQLGGSREAPIEILQRNPDQPRRTFREEDLEDLSNSIREKGVLQPILVRPSPDTAGEYQIVAGERAWRAAQRAGLKTVPIMVRELDDLAVLEIGIIENVQRADLNVLEEALSYKVLMEKFERTQENIAQTIGKSXSHVANXMRLLXLPDEVQSYLVSGELTAXHARAIAAAADPVALAKQIIEGGLSVRETEALARKAPNLSAGKSKGGRPPRVKDTDTQALESDLSSVLGLDVSIDHRGSTGTLTITYATLEQLDDLCNRLTRGI"}},
  "note": "Over roughly 81,000 sequences, “one-hybrid fitness for binding NBS DNA” has its median near -0.1; the highest 2% begin near 0.36. The list shows a part of the results.",
  "data": [
    {"variants_of": "B1", "assay": "one-hybrid fitness for binding NBS DNA (the Noc-binding site; scaled: cognate 1, non-cognate 0); higher = stronger binding", "conditions": "with NBS DNA site", "method_in_brief": "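Selection: bacterial one-hybrid in E. coli USO, HIS3 reporter with the site 19 bp from the promoter, 48 hours at 37°C on M9-minus-histidine plus 0.1 mM IPTG and 5 mM 3-AT. Libraries were Caulobacter ParB with four randomised specificity codons, sequenced on Illumina before and after selection. Fitness is the rescaled log change in variant-to-wild-type read ratio, anchored to the cognate and non-cognate sites.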", "values": [
      {"variant": "RQQL", "one-hybrid fitness for binding NBS DNA": "≤ 0.2"},
      {"variant": "CNIY", "one-hybrid fitness for binding NBS DNA": "≤ 0.2"},
      {"variant": "GNKV", "one-hybrid fitness for binding NBS DNA": "≤ 0.2"},
      {"variant": "GMRY", "one-hybrid fitness for binding NBS DNA": "≤ 0.2"},
      {"variant": "RQHT", "one-hybrid fitness for binding NBS DNA": 0.417},
      {"variant": "LRWS", "one-hybrid fitness for binding NBS DNA": "≤ 0.2"},
      {"variant": "ELGD", "one-hybrid fitness for binding NBS DNA": "≤ 0.2"},
      {"variant": "CRTW", "one-hybrid fitness for binding NBS DNA": "≤ 0.2"},
      {"variant": "YFCR", "one-hybrid fitness for binding NBS DNA": "≤ 0.2"},
      {"variant": "VGDT", "one-hybrid fitness for binding NBS DNA": "≤ 0.2"},
      {"variant": "QCKI", "one-hybrid fitness for binding NBS DNA": 0.405},
      {"variant": "CKCF", "one-hybrid fitness for binding NBS DNA": "≤ 0.2"},
      {"variant": "QDFV", "one-hybrid fitness for binding NBS DNA": "≤ 0.2"},
      {"variant": "TFPW", "one-hybrid fitness for binding NBS DNA": "≤ 0.2"},
      {"variant": "CNNS", "one-hybrid fitness for binding NBS DNA": "≤ 0.2"},
      {"variant": "QHRV", "one-hybrid fitness for binding NBS DNA": 0.378},
      {"variant": "VLTT", "one-hybrid fitness for binding NBS DNA": "≤ 0.2"},
      {"variant": "PWLM", "one-hybrid fitness for binding NBS DNA": "≤ 0.2"},
      {"variant": "SSPY", "one-hybrid fitness for binding NBS DNA": "≤ 0.2"},
      {"variant": "FFRG", "one-hybrid fitness for binding NBS DNA": "≤ 0.2"},
      {"variant": "HHLA", "one-hybrid fitness for binding NBS DNA": "≤ 0.2"},
      {"variant": "NDIG", "one-hybrid fitness for binding NBS DNA": "≤ 0.2"},
      {"variant": "QHWS", "one-hybrid fitness for binding NBS DNA": 0.263},
      {"variant": "TGWT", "one-hybrid fitness for binding NBS DNA": "≤ 0.2"},
      {"variant": "CMKV", "one-hybrid fitness for binding NBS DNA": "≤ 0.2"},
      {"variant": "RTEH", "one-hybrid fitness for binding NBS DNA": "≤ 0.2"},
      {"variant": "ARNQ", "one-hybrid fitness for binding NBS DNA": "≤ 0.2"},
      {"variant": "QVSM", "one-hybrid fitness for binding NBS DNA": "≤ 0.2"},
      {"variant": "KRPM", "one-hybrid fitness for binding NBS DNA": "≤ 0.2"},
      {"variant": "ARGR", "one-hybrid fitness for binding NBS DNA": "≤ 0.2"},
      {"variant": "SIQC", "one-hybrid fitness for binding NBS DNA": "≤ 0.2"},
      {"variant": "AQFG", "one-hybrid fitness for binding NBS DNA": "≤ 0.2"},
      {"variant": "IFLF", "one-hybrid fitness for binding NBS DNA": "≤ 0.2"},
      {"variant": "SLKV", "one-hybrid fitness for binding NBS DNA": "≤ 0.2"},
      {"variant": "RYGC", "one-hybrid fitness for binding NBS DNA": "≤ 0.2"},
      {"variant": "TFRS", "one-hybrid fitness for binding NBS DNA": "≤ 0.2"},
      {"variant": "STKL", "one-hybrid fitness for binding NBS DNA": "≤ 0.2"},
      {"variant": "PSTQ", "one-hybrid fitness for binding NBS DNA": "≤ 0.2"},
      {"variant": "HPPN", "one-hybrid fitness for binding NBS DNA": "≤ 0.2"},
      {"variant": "LSRE", "one-hybrid fitness for binding NBS DNA": "≤ 0.2"},
      {"variant": "GHSS", "one-hybrid fitness for binding NBS DNA": "≤ 0.2"},
      {"variant": "NHRT", "one-hybrid fitness for binding NBS DNA": "≤ 0.2"},
      {"variant": "SPTP", "one-hybrid fitness for binding NBS DNA": "≤ 0.2"},
      {"variant": "NEAC", "one-hybrid fitness for binding NBS DNA": "≤ 0.2"},
      {"variant": "THPD", "one-hybrid fitness for binding NBS DNA": "≤ 0.2"},
      {"variant": "RHLC", "one-hybrid fitness for binding NBS DNA": "≤ 0.2"},
      {"variant": "MPYL", "one-hybrid fitness for binding NBS DNA": "≤ 0.2"},
      {"variant": "YRMN", "one-hybrid fitness for binding NBS DNA": "≤ 0.2"},
      {"variant": "ERHM", "one-hybrid fitness for binding NBS DNA": "≤ 0.2"},
      {"variant": "WSCE", "one-hybrid fitness for binding NBS DNA": "≤ 0.2"},
      {"variant": "RMSA", "one-hybrid fitness for binding NBS DNA": "≤ 0.2"},
      {"variant": "QVHP", "one-hybrid fitness for binding NBS DNA": "≤ 0.2"},
      {"variant": "NNYR", "one-hybrid fitness for binding NBS DNA": "≤ 0.2"},
      {"variant": "PFNP", "one-hybrid fitness for binding NBS DNA": "≤ 0.2"},
      {"variant": "RYFW", "one-hybrid fitness for binding NBS DNA": "≤ 0.2"},
      {"variant": "NSSF", "one-hybrid fitness for binding NBS DNA": "≤ 0.2"},
      {"variant": "HLRP", "one-hybrid fitness for binding NBS DNA": "≤ 0.2"},
      {"variant": "RTMM", "one-hybrid fitness for binding NBS DNA": "≤ 0.2"},
      {"variant": "MVYS", "one-hybrid fitness for binding NBS DNA": "≤ 0.2"},
      {"variant": "QAPR", "one-hybrid fitness for binding NBS DNA": 0.275},
      {"variant": "YSTW", "one-hybrid fitness for binding NBS DNA": "≤ 0.2"},
      {"variant": "QHNW", "one-hybrid fitness for binding NBS DNA": "≤ 0.2"},
      {"variant": "FRMA", "one-hybrid fitness for binding NBS DNA": "≤ 0.2"},
      {"variant": "TVKL", "one-hybrid fitness for binding NBS DNA": "≤ 0.2"},
      {"variant": "DRLS", "one-hybrid fitness for binding NBS DNA": "≤ 0.2"},
      {"variant": "NYAL", "one-hybrid fitness for binding NBS DNA": "≤ 0.2"},
      {"variant": "CQKS", "one-hybrid fitness for binding NBS DNA": "≤ 0.2"},
      {"variant": "IRGT", "one-hybrid fitness for binding NBS DNA": 0.23},
      {"variant": "IMSE", "one-hybrid fitness for binding NBS DNA": "≤ 0.2"},
      {"variant": "RYDR", "one-hybrid fitness for binding NBS DNA": 0.207},
      {"variant": "SQDY", "one-hybrid fitness for binding NBS DNA": "≤ 0.2"},
      {"variant": "HAST", "one-hybrid fitness for binding NBS DNA": "≤ 0.2"},
      {"variant": "LQFE", "one-hybrid fitness for binding NBS DNA": "≤ 0.2"},
      {"variant": "WSQC", "one-hybrid fitness for binding NBS DNA": "≤ 0.2"},
      {"variant": "QTHG", "one-hybrid fitness for binding NBS DNA": 0.234},
      {"variant": "CFTP", "one-hybrid fitness for binding NBS DNA": "≤ 0.2"},
      {"variant": "DIFL", "one-hybrid fitness for binding NBS DNA": "≤ 0.2"},
      {"variant": "HYIG", "one-hybrid fitness for binding NBS DNA": "≤ 0.2"},
      {"variant": "QYGG", "one-hybrid fitness for binding NBS DNA": "≤ 0.2"},
      {"variant": "KTVQ", "one-hybrid fitness for binding NBS DNA": "≤ 0.2"},
      {"variant": "LCGG", "one-hybrid fitness for binding NBS DNA": "≤ 0.2"},
      {"variant": "TPPD", "one-hybrid fitness for binding NBS DNA": "≤ 0.2"},
      {"variant": "NTDS", "one-hybrid fitness for binding NBS DNA": "≤ 0.2"},
      {"variant": "SIVS", "one-hybrid fitness for binding NBS DNA": "≤ 0.2"},
      {"variant": "AALT", "one-hybrid fitness for binding NBS DNA": "≤ 0.2"},
      {"variant": "CDAT", "one-hybrid fitness for binding NBS DNA": "≤ 0.2"},
      {"variant": "EHNR", "one-hybrid fitness for binding NBS DNA": "≤ 0.2"},
      {"variant": "DIHC", "one-hybrid fitness for binding NBS DNA": "≤ 0.2"},
      {"variant": "TVLN", "one-hybrid fitness for binding NBS DNA": "≤ 0.2"},
      {"variant": "ATYY", "one-hybrid fitness for binding NBS DNA": "≤ 0.2"},
      {"variant": "PPES", "one-hybrid fitness for binding NBS DNA": "≤ 0.2"},
      {"variant": "QPHL", "one-hybrid fitness for binding NBS DNA": "≤ 0.2"},
      {"variant": "HDER", "one-hybrid fitness for binding NBS DNA": "≤ 0.2"},
      {"variant": "AKML", "one-hybrid fitness for binding NBS DNA": "≤ 0.2"},
      {"variant": "IHYG", "one-hybrid fitness for binding NBS DNA": "≤ 0.2"},
      {"variant": "LIYS", "one-hybrid fitness for binding NBS DNA": "≤ 0.2"},
      {"variant": "RYIW", "one-hybrid fitness for binding NBS DNA": "≤ 0.2"}
    ]}
  ]
}
